# Source: the supplement of paper PMC8728848
# This is one part of the list.
# B1: TbCVNHOb (Tuber borchii) (protein)
# chain: GSHIGPYMSFYASSEDVRTIEEGGRTWLVGRARRADGSWQDIKLDLDNIIGNRDGHLTWGEQNFTQSASDIRFNFEGGSNVPVLRAKLRNAAGGEQESDLNLGERLTNNNGDLVFN
# Key:
# Assay in all cases: glycan array binding signal (z-score within array); higher = stronger binding
# Conditions in all cases: glycan notation: IUPAC condensed, linker removed
# [1] = target: Kdn(a2-3)Gal(b1-4)GlcNAc
# Method in brief: (§1)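 Negative Z-scores can be read as non-binding. The Z-score is calculated within each array and then averaged across arrays of one protein sequence at different concentrations or buffers and across linkers. Arrays, 3228 in all, were curated from the Consortium for Functional Glycomics database and kept only where the protein sequence was available.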
# [2] = target: Man(a1-2)Man(a1-2)Man(a1-3)Man
# Method in brief: as §1
# [3] = target: Man(a1-2)Man(a1-2)Man(a1-3)[Man(a1-2)Man(a1-3)[Man(a1-2)Man(a1-6)]Man(a1-6)]Man(b1-4)GlcNAc(b1-4)GlcNAc
# Method in brief: as §1
# [4] = target: Man(a1-2)Man(a1-2)Man(a1-3)[Man(a1-2)Man(a1-6)[Man(a1-3)]Man(a1-6)]Man(b1-4)GlcNAc(b1-4)GlcNAc
# Method in brief: as §1
# [5] = target: Man(a1-2)Man(a1-2)Man(a1-6)[Man(a1-3)]Man
# Method in brief: as §1
# [6] = target: Man(a1-2)Man(a1-3)Man
# Method in brief: as §1
# [7] = target: Man(a1-2)Man(a1-3)[Man(a1-2)Man(a1-6)]Man
# Method in brief: as §1
# [8] = target: Man(a1-2)Man(a1-3)[Man(a1-3)[Man(a1-6)]Man(a1-6)]Man(b1-4)GlcNAc(b1-4)GlcNAc
# Method in brief: as §1
# [9] = target: Man(a1-2)Man(a1-3)[Man(a1-6)]Man(a1-6)[Man(a1-2)Man(a1-3)]Man(b1-4)GlcNAc(b1-4)GlcNAc
# Method in brief: as §1
# [10] = target: Man(a1-3)[Man(a1-6)]Man
# Method in brief: as §1
# [11] = target: Man(a1-3)[Man(a1-6)]Man(a1-6)[Man(a1-3)]Man(b1-4)GlcNAc(b1-4)GlcNAc
# Method in brief: as §1
# [12] = target: Man(a1-3)[Man(a1-6)]Man(b1-4)GlcNAc(b1-4)GlcNAc
# Method in brief: as §1
# [13] = target: Man(b1-4)GlcNAc
# Method in brief: as §1
# [14] = target: Neu5Ac(a2-3)Gal
# Method in brief: as §1
# [15] = target: Neu5Ac(a2-3)Gal(b1-3)GalNAc
# Method in brief: as §1
# [16] = target: Neu5Ac(a2-3)Gal(b1-3)GalNAc(b1-3)Gal(a1-4)Gal(b1-4)Glc
# Method in brief: as §1
# [17] = target: Neu5Ac(a2-3)Gal(b1-3)GalNAc(b1-4)[Neu5Ac(a2-3)]Gal(b1-4)Glc
# Method in brief: as §1
# [18] = target: Neu5Ac(a2-3)Gal(b1-3)GalNAc6S
# Method in brief: as §1
# [19] = target: Neu5Ac(a2-3)Gal(b1-3)GlcNAc
# Method in brief: as §1
# [20] = target: Neu5Ac(a2-3)Gal(b1-3)GlcNAc(b1-3)Gal(b1-4)GlcNAc
# Method in brief: as §1
# [21] = target: Neu5Ac(a2-3)Gal(b1-3)GlcNAc6S
# Method in brief: as §1
# [22] = target: Neu5Ac(a2-3)Gal(b1-3)[Fuc(a1-4)]GlcNAc
# Method in brief: as §1
# [23] = target: Neu5Ac(a2-3)Gal(b1-3)[Fuc(a1-4)]GlcNAc(b1-3)Gal(b1-4)[Fuc(a1-3)]GlcNAc
# Method in brief: as §1
# [24] = target: Neu5Ac(a2-3)Gal(b1-3)[Neu5Ac(a2-3)Gal(b1-4)]GlcNAc
# Method in brief: as §1
# [25] = target: Neu5Ac(a2-3)Gal(b1-3)[Neu5Ac(a2-6)]GalNAc
# Method in brief: as §1
# [26] = target: Neu5Ac(a2-3)Gal(b1-4)Glc
# Method in brief: as §1
# [27] = target: Neu5Ac(a2-3)Gal(b1-4)GlcNAc
# Method in brief: as §1
# [28] = target: Neu5Ac(a2-3)Gal(b1-4)GlcNAc(b1-3)Gal(b1-4)GlcNAc
# Method in brief: as §1
# [29] = target: Neu5Ac(a2-3)Gal(b1-4)GlcNAc(b1-3)Gal(b1-4)GlcNAc(b1-3)Gal(b1-4)GlcNAc
# Method in brief: as §1
# [30] = target: Neu5Ac(a2-3)Gal(b1-4)GlcNAc(b1-3)Gal(b1-4)[Fuc(a1-3)]GlcNAc
# Method in brief: as §1
# [31] = target: Neu5Ac(a2-3)Gal(b1-4)GlcNAc6S
# Method in brief: as §1
# [32] = target: Neu5Ac(a2-3)Gal(b1-4)[Fuc(a1-3)]GlcNAc
# Method in brief: as §1
# [33] = target: Neu5Ac(a2-3)Gal(b1-4)[Fuc(a1-3)]GlcNAc(b1-3)Gal
# Method in brief: as §1
# [34] = target: Neu5Ac(a2-3)Gal(b1-4)[Fuc(a1-3)]GlcNAc(b1-3)Gal(b1-4)GlcNAc
# Method in brief: as §1
# [35] = target: Neu5Ac(a2-3)Gal(b1-4)[Fuc(a1-3)]GlcNAc(b1-3)Gal(b1-4)[Fuc(a1-3)]GlcNAc(b1-3)Gal(b1-4)[Fuc(a1-3)]GlcNAc
# Method in brief: as §1
# [36] = target: Neu5Ac(a2-3)Gal(b1-4)[Fuc(a1-3)]GlcNAc6S
# Method in brief: as §1
# [37] = target: Neu5Ac(a2-3)Gal6S(b1-4)GlcNAc
# Method in brief: as §1
# [38] = target: Neu5Ac(a2-3)Gal6S(b1-4)[Fuc(a1-3)]GlcNAc
# Method in brief: as §1
# [39] = target: Neu5Ac(a2-3)GalNAc
# Method in brief: as §1
# [40] = target: Neu5Ac(a2-3)GalNAc(b1-4)GlcNAc
# Method in brief: as §1
# [41] = target: Neu5Ac(a2-3)[GalNAc(b1-4)]Gal(b1-4)Glc
# Method in brief: as §1
# [42] = target: Neu5Ac(a2-3)[GalNAc(b1-4)]Gal(b1-4)GlcNAc
# Method in brief: as §1
# [43] = target: Neu5Ac(a2-3)[Neu5Ac(a2-6)]GalNAc
# Method in brief: as §1
# [44] = target: Neu5Ac(a2-6)Gal(b1-4)GlcNAc
# Method in brief: as §1
# [45] = target: Neu5Ac(a2-6)Gal(b1-4)GlcNAc(b1-2)Man(a1-3)[Neu5Ac(a2-6)Gal(b1-4)GlcNAc(b1-2)Man(a1-6)]Man(b1-4)GlcNAc(b1-4)GlcNAc
# Method in brief: as §1
# [46] = target: Neu5Ac(a2-6)Gal(b1-4)GlcNAc(b1-3)Gal(b1-4)GlcNAc
# Method in brief: as §1
# [47] = target: Neu5Ac(a2-6)Gal(b1-4)GlcNAc(b1-3)Gal(b1-4)[Fuc(a1-3)]GlcNAc(b1-3)Gal(b1-4)[Fuc(a1-3)]GlcNAc
# Method in brief: as §1
# [48] = target: Neu5Ac(a2-6)Gal(b1-4)GlcNAc6S
# Method in brief: as §1
# [49] = target: Neu5Ac(a2-6)GalNAc
# Method in brief: as §1
# [50] = target: Neu5Ac(a2-6)GalNAc(b1-4)GlcNAc
# Method in brief: as §1
# [51] = target: Neu5Ac(a2-8)Neu5Ac
# Method in brief: as §1
# [52] = target: Neu5Ac(a2-8)Neu5Ac(a2-3)Gal(b1-4)Glc
# Method in brief: as §1
# [53] = target: Neu5Ac(a2-8)Neu5Ac(a2-3)[GalNAc(b1-4)]Gal(b1-4)Glc
# Method in brief: as §1
# [54] = target: Neu5Ac(a2-8)Neu5Ac(a2-8)Neu5Ac
# Method in brief: as §1
# [55] = target: Neu5Ac(a2-8)Neu5Ac(a2-8)Neu5Ac(a2-3)Gal(b1-4)Glc
# Method in brief: as §1
# [56] = target: Neu5Ac(a2-8)Neu5Ac(a2-8)Neu5Ac(a2-3)[GalNAc(b1-4)]Gal(b1-4)Glc
# Method in brief: as §1
# [57] = target: Neu5Ac(a2-8)Neu5Ac(a2-8)Neu5Ac(a2-8)Neu5Ac(a2-3)[GalNAc(b1-4)]Gal(b1-4)Glc
# Method in brief: as §1
# [58] = target: Neu5Ac9Ac(a2-6)Gal(b1-4)GlcNAc
# Method in brief: as §1
# [59] = target: Neu5Gc(a2-3)Gal(b1-3)GlcNAc
# Method in brief: as §1
# [60] = target: Neu5Gc(a2-3)Gal(b1-3)[Fuc(a1-4)]GlcNAc
# Method in brief: as §1
# [61] = target: Neu5Gc(a2-3)Gal(b1-4)Glc
# Method in brief: as §1
# [62] = target: Neu5Gc(a2-3)Gal(b1-4)GlcNAc
# Method in brief: as §1
# [63] = target: Neu5Gc(a2-3)Gal(b1-4)[Fuc(a1-4)]GlcNAc
# Method in brief: as §1
# [64] = target: Neu5Gc(a2-6)Gal(b1-4)GlcNAc
# Method in brief: as §1
# [65] = target: Neu5Gc(a2-6)GalNAc
# Method in brief: as §1
binder,measurement,setting,value
B1,glycan array binding signal (z-score),[1],0.108
same,glycan array binding signal (z-score),[2],5.4
same,glycan array binding signal (z-score),[3],0.34
same,glycan array binding signal (z-score),[4],-0.449
same,glycan array binding signal (z-score),[5],2.41
same,glycan array binding signal (z-score),[6],-0.427
same,glycan array binding signal (z-score),[7],-0.572
same,glycan array binding signal (z-score),[8],-0.019
same,glycan array binding signal (z-score),[9],-0.281
same,glycan array binding signal (z-score),[10],-0.322
same,glycan array binding signal (z-score),[11],-0.383
same,glycan array binding signal (z-score),[12],-0.197
same,glycan array binding signal (z-score),[13],0.106
same,glycan array binding signal (z-score),[14],-0.478
same,glycan array binding signal (z-score),[15],0.202
same,glycan array binding signal (z-score),[16],3.63
same,glycan array binding signal (z-score),[17],-0.148
same,glycan array binding signal (z-score),[18],-0.619
same,glycan array binding signal (z-score),[19],-0.491
same,glycan array binding signal (z-score),[20],-0.587
same,glycan array binding signal (z-score),[21],-0.045
same,glycan array binding signal (z-score),[22],-0.198
same,glycan array binding signal (z-score),[23],1.13
same,glycan array binding signal (z-score),[24],-0.625
same,glycan array binding signal (z-score),[25],-0.348
same,glycan array binding signal (z-score),[26],0.864
same,glycan array binding signal (z-score),[27],-0.496
same,glycan array binding signal (z-score),[28],-0.329
same,glycan array binding signal (z-score),[29],-0.471
same,glycan array binding signal (z-score),[30],-0.251
same,glycan array binding signal (z-score),[31],-0.401
same,glycan array binding signal (z-score),[32],-0.457
same,glycan array binding signal (z-score),[33],-0.45
same,glycan array binding signal (z-score),[34],-0.387
same,glycan array binding signal (z-score),[35],-0.412
same,glycan array binding signal (z-score),[36],-0.607
same,glycan array binding signal (z-score),[37],-0.594
same,glycan array binding signal (z-score),[38],0.853
same,glycan array binding signal (z-score),[39],-0.569
same,glycan array binding signal (z-score),[40],-0.633
same,glycan array binding signal (z-score),[41],-0.549
same,glycan array binding signal (z-score),[42],-0.501
same,glycan array binding signal (z-score),[43],-0.604
same,glycan array binding signal (z-score),[44],-0.287
same,glycan array binding signal (z-score),[45],-0.528
same,glycan array binding signal (z-score),[46],-0.196
same,glycan array binding signal (z-score),[47],-0.484
same,glycan array binding signal (z-score),[48],-0.583
same,glycan array binding signal (z-score),[49],-0.341
same,glycan array binding signal (z-score),[50],-0.535
same,glycan array binding signal (z-score),[51],-0.335
same,glycan array binding signal (z-score),[52],-0.579
same,glycan array binding signal (z-score),[53],0.097
same,glycan array binding signal (z-score),[54],-0.121
same,glycan array binding signal (z-score),[55],-0.246
same,glycan array binding signal (z-score),[56],-0.405
same,glycan array binding signal (z-score),[57],-0.244
same,glycan array binding signal (z-score),[58],-0.495
same,glycan array binding signal (z-score),[59],-0.576
same,glycan array binding signal (z-score),[60],-0.276
same,glycan array binding signal (z-score),[61],-0.42
same,glycan array binding signal (z-score),[62],-0.572
same,glycan array binding signal (z-score),[63],-0.228
same,glycan array binding signal (z-score),[64],-0.326
same,glycan array binding signal (z-score),[65],-0.435
